Reference: the supplement of paper PMC8728848
Some of the results follow.

How the values were obtained:
Assay in all cases: glycan array binding signal (z-score within array); higher = stronger binding
Conditions in all cases: glycan notation: IUPAC condensed, linker removed
[1] = target: Neu5Ac(a2-3)Gal(b1-4)GlcNAc(b1-2)[Neu5Ac(a2-3)Gal(b1-4)GlcNAc(b1-6)]Man(a1-6)[Neu5Ac(a2-3)Gal(b1-4)GlcNAc(b1-2)Man(a1-3)]Man(b1-4)GlcNAc(b1-4)GlcNAc
Method in brief: (§1)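 From the Consortium for Functional Glycomics database, 3228 arrays were curated, keeping only those whose protein sequence was available. Binding is given as a within-array Z-score averaged across arrays sharing a protein sequence and across linkers. Negative Z-scores can be read as non-binding.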

[2] = target: Neu5Ac(a2-3)Gal(b1-4)GlcNAc(b1-2)[Neu5Ac(a2-3)Gal(b1-4)GlcNAc(b1-6)]Man(a1-6)[Neu5Ac(a2-3)Gal(b1-4)GlcNAc(b1-2)Man(a1-3)][GlcNAc(b1-4)]Man(b1-4)GlcNAc(b1-4)GlcNAc
Method in brief: as §1

[3] = target: Neu5Ac(a2-3)Gal(b1-4)GlcNAc(b1-3)Gal
Method in brief: as §1

[4] = target: Neu5Ac(a2-3)Gal(b1-4)GlcNAc(b1-3)Gal(b1-3)GlcNAc
Method in brief: as §1

[5] = target: Neu5Ac(a2-3)Gal(b1-4)GlcNAc(b1-3)Gal(b1-4)GlcNAc
Method in brief: as §1

[6] = target: Neu5Ac(a2-3)Gal(b1-4)GlcNAc(b1-3)Gal(b1-4)GlcNAc(b1-2)Man(a1-3)[Neu5Ac(a2-3)Gal(b1-4)GlcNAc(b1-3)Gal(b1-4)GlcNAc(b1-2)Man(a1-6)]Man(b1-4)GlcNAc(b1-4)GlcNAc
Method in brief: as §1

[7] = target: Neu5Ac(a2-3)Gal(b1-4)GlcNAc(b1-3)Gal(b1-4)GlcNAc(b1-3)Gal(b1-4)GlcNAc
Method in brief: as §1

[8] = target: Neu5Ac(a2-3)Gal(b1-4)GlcNAc(b1-3)Gal(b1-4)GlcNAc(b1-3)Gal(b1-4)GlcNAc(b1-2)Man(a1-3)[Neu5Ac(a2-3)Gal(b1-4)GlcNAc(b1-3)Gal(b1-4)GlcNAc(b1-3)Gal(b1-4)GlcNAc(b1-2)Man(a1-6)]GalNAc
Method in brief: as §1

[9] = target: Neu5Ac(a2-3)Gal(b1-4)GlcNAc(b1-3)Gal(b1-4)GlcNAc(b1-3)GalNAc
Method in brief: as §1

[10] = target: Neu5Ac(a2-3)Gal(b1-4)GlcNAc(b1-3)Gal(b1-4)GlcNAc(b1-3)[Neu5Ac(a2-3)Gal(b1-4)GlcNAc(b1-3)Gal(b1-4)GlcNAc(b1-6)]GalNAc
Method in brief: as §1

[11] = target: Neu5Ac(a2-3)Gal(b1-4)GlcNAc(b1-3)Gal(b1-4)GlcNAc(b1-6)[Gal(b1-3)]GalNAc
Method in brief: as §1

[12] = target: Neu5Ac(a2-3)Gal(b1-4)GlcNAc(b1-3)Gal(b1-4)[Fuc(a1-3)]GlcNAc
Method in brief: as §1

[13] = target: Neu5Ac(a2-3)Gal(b1-4)GlcNAc(b1-3)GalNAc
Method in brief: as §1

[14] = target: Neu5Ac(a2-3)Gal(b1-4)GlcNAc(b1-3)[Neu5Ac(a2-3)Gal(b1-4)GlcNAc(b1-6)]GalNAc
Method in brief: as §1

[15] = target: Neu5Ac(a2-3)Gal(b1-4)GlcNAc(b1-6)GalNAc
Method in brief: as §1

[16] = target: Neu5Ac(a2-3)Gal(b1-4)GlcNAc(b1-6)[Gal(b1-3)]GalNAc
Method in brief: as §1

[17] = target: Neu5Ac(a2-3)Gal(b1-4)GlcNAc(b1-6)[Neu5Ac(a2-3)Gal(b1-3)]GalNAc
Method in brief: as §1

[18] = target: Neu5Ac(a2-3)Gal(b1-4)GlcNAc6S
Method in brief: as §1

[19] = target: Neu5Ac(a2-3)Gal(b1-4)[Fuc(a1-3)]GlcNAc
Method in brief: as §1

[20] = target: Neu5Ac(a2-3)Gal(b1-4)[Fuc(a1-3)]GlcNAc(b1-2)Man
Method in brief: as §1

[21] = target: Neu5Ac(a2-3)Gal(b1-4)[Fuc(a1-3)]GlcNAc(b1-3)Gal
Method in brief: as §1

[22] = target: Neu5Ac(a2-3)Gal(b1-4)[Fuc(a1-3)]GlcNAc(b1-3)Gal(b1-4)GlcNAc
Method in brief: as §1

[23] = target: Neu5Ac(a2-3)Gal(b1-4)[Fuc(a1-3)]GlcNAc(b1-3)Gal(b1-4)[Fuc(a1-3)]GlcNAc(b1-3)Gal(b1-4)[Fuc(a1-3)]GlcNAc
Method in brief: as §1

[24] = target: Neu5Ac(a2-3)Gal(b1-4)[Fuc(a1-3)]GlcNAc(b1-3)GalNAc
Method in brief: as §1

[25] = target: Neu5Ac(a2-3)Gal(b1-4)[Fuc(a1-3)]GlcNAc(b1-6)[Gal(b1-3)]GalNAc
Method in brief: as §1

[26] = target: Neu5Ac(a2-3)Gal(b1-4)[Fuc(a1-3)]GlcNAc(b1-6)[Neu5Ac(a2-3)Gal(b1-3)]GalNAc
Method in brief: as §1

[27] = target: Neu5Ac(a2-3)Gal(b1-4)[Fuc(a1-3)]GlcNAc6S
Method in brief: as §1

[28] = target: Neu5Ac(a2-3)Gal6S(b1-4)GlcNAc
Method in brief: as §1

[29] = target: Neu5Ac(a2-3)Gal6S(b1-4)[Fuc(a1-3)]GlcNAc
Method in brief: as §1

[30] = target: Neu5Ac(a2-3)GalNAc
Method in brief: as §1

[31] = target: Neu5Ac(a2-3)GalNAc(b1-4)GlcNAc
Method in brief: as §1

[32] = target: Neu5Ac(a2-3)[GalNAc(b1-4)]Gal(b1-4)Glc
Method in brief: as §1

[33] = target: Neu5Ac(a2-3)[GalNAc(b1-4)]Gal(b1-4)GlcNAc
Method in brief: as §1

[34] = target: Neu5Ac(a2-3)[GalNAc(b1-4)]Gal(b1-4)GlcNAc(b1-3)GalNAc
Method in brief: as §1

[35] = target: Neu5Ac(a2-3)[Neu5Ac(a2-6)]GalNAc
Method in brief: as §1

[36] = target: Neu5Ac(a2-6)Gal
Method in brief: as §1

[37] = target: Neu5Ac(a2-6)Gal(b1-3)GlcNAc(b1-3)[Gal(b1-4)GlcNAc(b1-6)]Gal(b1-4)Glc
Method in brief: as §1

B1: ACA (Amaranthus caudatus) (protein)
chain: MAGLPVIMCLKSNNNQKYLRYQSDNIQQYGLLQFSADKILDPLAQFEVEPSKTYDGLVHIKSRYTNKYLVRWSPNHYWITASANEPDENKSNWACTLFKPLYVEEGNMKKVRLLHVQLGHYTQNYTVGGSFVSYLFAESSQIDTGSKDVFHVIDWKSIFQFPKRYVTFKGNNGKYLGVITINQLPCLQFGYDNLNDPKVAHEMFVTSNGTICIKSTYMNKFWRLSTDDWILVDGNDPRETNEAAALFRSDVHDFNVISLLNMQKTWFIKRFTSGKPGFINCMNAATQNVDETAILEIIELGSNN
glycan array binding signal (z-score) [1]: 0.184 | glycan array binding signal (z-score) [2]: -0.715 | glycan array binding signal (z-score) [3]: -0.792 | glycan array binding signal (z-score) [4]: -0.399 | glycan array binding signal (z-score) [5]: -0.63 | glycan array binding signal (z-score) [6]: 3.13 | glycan array binding signal (z-score) [7]: -0.496 | glycan array binding signal (z-score) [8]: 9.87 | glycan array binding signal (z-score) [9]: 0.033 | glycan array binding signal (z-score) [10]: 0.039 | glycan array binding signal (z-score) [11]: 1.06 | glycan array binding signal (z-score) [12]: 0.092 | glycan array binding signal (z-score) [13]: -0.31 | glycan array binding signal (z-score) [14]: 0.132 | glycan array binding signal (z-score) [15]: -0.033 | glycan array binding signal (z-score) [16]: 0.029 | glycan array binding signal (z-score) [17]: -0.222 | glycan array binding signal (z-score) [18]: -0.219 | glycan array binding signal (z-score) [19]: -0.577 | glycan array binding signal (z-score) [20]: -0.376 | glycan array binding signal (z-score) [21]: -0.407 | glycan array binding signal (z-score) [22]: -0.139 | glycan array binding signal (z-score) [23]: -0.312 | glycan array binding signal (z-score) [24]: 0.449 | glycan array binding signal (z-score) [25]: 0.615 | glycan array binding signal (z-score) [26]: -0.001 | glycan array binding signal (z-score) [27]: -0.123 | glycan array binding signal (z-score) [28]: -0.189 | glycan array binding signal (z-score) [29]: -0.502 | glycan array binding signal (z-score) [30]: -0.329 | glycan array binding signal (z-score) [31]: -0.452 | glycan array binding signal (z-score) [32]: -0.452 | glycan array binding signal (z-score) [33]: -0.069 | glycan array binding signal (z-score) [34]: 2.5 | glycan array binding signal (z-score) [35]: -0.305 | glycan array binding signal (z-score) [36]: 0.179 | glycan array binding signal (z-score) [37]: -0.294
